Results as given in the supplement of paper PMC8728848.
Some of the results follow.

Legend:
Assay in all cases: glycan array binding signal (z-score within array); higher = stronger binding
Conditions in all cases: glycan notation: IUPAC condensed, linker removed
[1] = molecular target: Neu5Ac(a2-6)GalNAc(b1-4)GlcNAc
Summary of the method: (§1)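 Arrays were curated from the Consortium for Functional Glycomics database, 3228 in total, and kept only where the protein sequence was available. Binding is expressed as a within-array Z-score. This score was averaged across arrays of the same protein sequence at different concentrations or buffers and across linkers, and negative values can be read as non-binding.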

[2] = molecular target: Neu5Ac(a2-6)GalNAc(b1-4)GlcNAc6S
Summary of the method: as §1

[3] = molecular target: Neu5Ac(a2-6)GlcNAc(b1-4)GlcNAc
Summary of the method: as §1

[4] = molecular target: Neu5Ac(a2-6)GlcNAc(b1-4)GlcNAc(b1-4)GlcNAc
Summary of the method: as §1

Neu5Ac(a2-8)Neu5Ac = molecular target: Neu5Ac(a2-8)Neu5Ac
Summary of the method: as §1

[5] = molecular target: Neu5Ac(a2-8)Neu5Ac(a2-3)Gal(b1-3)GalNAc(b1-4)[Neu5Ac(a2-3)]Gal(b1-4)Glc
Summary of the method: as §1

[6] = molecular target: Neu5Ac(a2-8)Neu5Ac(a2-3)Gal(b1-3)GalNAc(b1-4)[Neu5Ac(a2-8)Neu5Ac(a2-3)]Gal(b1-4)Glc
Summary of the method: as §1

[7] = molecular target: Neu5Ac(a2-8)Neu5Ac(a2-3)Gal(b1-4)Glc
Summary of the method: as §1

[8] = molecular target: Neu5Ac(a2-8)Neu5Ac(a2-3)Gal(b1-4)GlcNAc
Summary of the method: as §1

[9] = molecular target: Neu5Ac(a2-8)Neu5Ac(a2-3)[Gal(b1-3)GalNAc(b1-4)]Gal(b1-4)Glc
Summary of the method: as §1

[10] = molecular target: Neu5Ac(a2-8)Neu5Ac(a2-3)[GalNAc(b1-4)]Gal(b1-4)Glc
Summary of the method: as §1

[11] = molecular target: Neu5Ac(a2-8)Neu5Ac(a2-8)Neu5Ac
Summary of the method: as §1

[12] = molecular target: Neu5Ac(a2-8)Neu5Ac(a2-8)Neu5Ac(a2-3)Gal(b1-4)Glc
Summary of the method: as §1

[13] = molecular target: Neu5Ac(a2-8)Neu5Ac(a2-8)Neu5Ac(a2-3)[Gal(b1-3)GalNAc(b1-4)]Gal(b1-4)Glc
Summary of the method: as §1

[14] = molecular target: Neu5Ac(a2-8)Neu5Ac(a2-8)Neu5Ac(a2-3)[GalNAc(b1-4)]Gal(b1-4)Glc
Summary of the method: as §1

[15] = molecular target: Neu5Ac(a2-8)Neu5Ac(a2-8)Neu5Ac(a2-8)Neu5Ac(a2-3)[GalNAc(b1-4)]Gal(b1-4)Glc
Summary of the method: as §1

[16] = molecular target: Neu5Ac(a2-8)Neu5Gc(a2-3)Gal(b1-4)GlcNAc
Summary of the method: as §1

[17] = molecular target: Neu5Ac(b2-6)Gal(b1-4)GlcNAc
Summary of the method: as §1

Neu5Ac(b2-6)GalNAc = molecular target: Neu5Ac(b2-6)GalNAc
Summary of the method: as §1

[18] = molecular target: Neu5Ac9Ac(a2-3)Gal(b1-3)GlcNAc
Summary of the method: as §1

[19] = molecular target: Neu5Ac9Ac(a2-3)Gal(b1-4)GlcNAc
Summary of the method: as §1

[20] = molecular target: Neu5Ac9Ac(a2-6)Gal(b1-4)GlcNAc
Summary of the method: as §1

[21] = molecular target: Neu5Gc(a2-3)Gal(b1-3)GlcNAc
Summary of the method: as §1

[22] = molecular target: Neu5Gc(a2-3)Gal(b1-3)[Fuc(a1-4)]GlcNAc
Summary of the method: as §1

Neu5Gc(a2-3)Gal(b1-4)Glc = molecular target: Neu5Gc(a2-3)Gal(b1-4)Glc
Summary of the method: as §1

[23] = molecular target: Neu5Gc(a2-3)Gal(b1-4)GlcNAc
Summary of the method: as §1

[24] = molecular target: Neu5Gc(a2-3)Gal(b1-4)GlcNAc(b1-3)Gal(b1-4)GlcNAc(b1-2)Man(a1-3)[Neu5Gc(a2-3)Gal(b1-4)GlcNAc(b1-3)Gal(b1-4)GlcNAc(b1-2)Man(a1-6)]Man(b1-4)GlcNAc(b1-4)GlcNAc
Summary of the method: as §1

[25] = molecular target: Neu5Gc(a2-3)Gal(b1-4)[Fuc(a1-3)]GlcNAc
Summary of the method: as §1

[26] = molecular target: Neu5Gc(a2-6)Gal(b1-4)GlcNAc
Summary of the method: as §1

Neu5Gc(a2-6)GalNAc = molecular target: Neu5Gc(a2-6)GalNAc
Summary of the method: as §1

[27] = molecular target: Neu5Gc(a2-8)Neu5Ac(a2-3)Gal(b1-4)GlcNAc
Summary of the method: as §1

[28] = molecular target: Neu5Gc(a2-8)Neu5Gc(a2-3)Gal(b1-4)GlcNAc
Summary of the method: as §1

[29] = molecular target: Neu5Gc(a2-8)Neu5Gc(a2-3)Gal(b1-4)GlcNAc(b1-3)Gal(b1-4)GlcNAc
Summary of the method: as §1

[30] = molecular target: Neu5Gc(a2-8)Neu5Gc(a2-6)Gal(b1-4)GlcNAc
Summary of the method: as §1

[31] = molecular target: Neu5Gc(b2-6)Gal(b1-4)GlcNAc
Summary of the method: as §1

B1: rMpL (Macrolepiota procera) (protein)
chain: MSTQVSSGRTYKITNVIAGTVIDLSGEDNKSIIGYPYHSGKNQQWTFNWTGKAWTLRSASSGSYLGIEGTPAGGTRLVAVNDPFEWHIWRDEANENAFRIFVPFTNYNLDLSGYGDTTPGTPVQLWWTWEGLHQTWTIDRP
glycan array binding signal (z-score) [1]: -0.425
glycan array binding signal (z-score) [2]: -0.284
glycan array binding signal (z-score) [3]: -0.364
glycan array binding signal (z-score) [4]: -0.408
glycan array binding signal (z-score) (Neu5Ac(a2-8)Neu5Ac): -0.372
glycan array binding signal (z-score) [5]: -0.353
glycan array binding signal (z-score) [6]: 0.176
glycan array binding signal (z-score) [7]: -0.388
glycan array binding signal (z-score) [8]: -0.389
glycan array binding signal (z-score) [9]: -0.298
glycan array binding signal (z-score) [10]: -0.35
glycan array binding signal (z-score) [11]: -0.289
glycan array binding signal (z-score) [12]: -0.27
glycan array binding signal (z-score) [13]: 0.139
glycan array binding signal (z-score) [14]: -0.174
glycan array binding signal (z-score) [15]: -0.267
glycan array binding signal (z-score) [16]: -0.407
glycan array binding signal (z-score) [17]: -0.33
glycan array binding signal (z-score) (Neu5Ac(b2-6)GalNAc): -0.338
glycan array binding signal (z-score) [18]: -0.374
glycan array binding signal (z-score) [19]: 0.277
glycan array binding signal (z-score) [20]: -0.345
glycan array binding signal (z-score) [21]: -0.3
glycan array binding signal (z-score) [22]: -0.335
glycan array binding signal (z-score) (Neu5Gc(a2-3)Gal(b1-4)Glc): -0.756
glycan array binding signal (z-score) [23]: -0.36
glycan array binding signal (z-score) [24]: -0.182
glycan array binding signal (z-score) [25]: -0.318
glycan array binding signal (z-score) [26]: -0.321
glycan array binding signal (z-score) (Neu5Gc(a2-6)GalNAc): -0.358
glycan array binding signal (z-score) [27]: -0.401
glycan array binding signal (z-score) [28]: -0.367
glycan array binding signal (z-score) [29]: -0.369
glycan array binding signal (z-score) [30]: -0.284
glycan array binding signal (z-score) [31]: -0.355
